# Source: PubChem BioAssay AID1460 (National Center for Advancing Translational Sciences (NCATS), 2008)
# The campaign covered roughly 270,000 compounds. About 5,800 (2.1%) were called active. Inconclusive results, whose numbers are uncertain, are shown with a selection of clear calls. The call rests on the fitted dose curve; in most records, active means well fitted inhibition curve with a large enough effect; inconclusive means small, poorly fitted or top-dose-only effect; inactive means flat fitted curve, though single readings scatter. A potency beside an inconclusive call is a rough fit, not a confirmed value.
# Biological target: Microtubule-associated protein tau (Homo sapiens) (UniProt P10636)
# Test: qHTS for Inhibitors of Tau Fibril Formation, Thioflavin T Binding; further: nearly all actives have a fitted effect of over 55% in size
# Settings: recombinant tau K18 P301L, heparin-induced fibrillization, ThT fluorescence; series mostly up to 57.4 µM
# Outline: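 Using a mix of unlabeled (15 uM) and Alexa 594-labeled (0.24 uM) tau K18 P301L, heparin-triggered fibrillization over 6 hr at 37 C was scored by ThT fluorescence.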
# On the % scale 0 is the no-effect control and ±100 the full control effect; potency means the concentration at half of the fitted maximal effect; tags describe the fitted curve by direction and shape.
# Sequence of UniProt P10636 (P10636 whole entry, looked up): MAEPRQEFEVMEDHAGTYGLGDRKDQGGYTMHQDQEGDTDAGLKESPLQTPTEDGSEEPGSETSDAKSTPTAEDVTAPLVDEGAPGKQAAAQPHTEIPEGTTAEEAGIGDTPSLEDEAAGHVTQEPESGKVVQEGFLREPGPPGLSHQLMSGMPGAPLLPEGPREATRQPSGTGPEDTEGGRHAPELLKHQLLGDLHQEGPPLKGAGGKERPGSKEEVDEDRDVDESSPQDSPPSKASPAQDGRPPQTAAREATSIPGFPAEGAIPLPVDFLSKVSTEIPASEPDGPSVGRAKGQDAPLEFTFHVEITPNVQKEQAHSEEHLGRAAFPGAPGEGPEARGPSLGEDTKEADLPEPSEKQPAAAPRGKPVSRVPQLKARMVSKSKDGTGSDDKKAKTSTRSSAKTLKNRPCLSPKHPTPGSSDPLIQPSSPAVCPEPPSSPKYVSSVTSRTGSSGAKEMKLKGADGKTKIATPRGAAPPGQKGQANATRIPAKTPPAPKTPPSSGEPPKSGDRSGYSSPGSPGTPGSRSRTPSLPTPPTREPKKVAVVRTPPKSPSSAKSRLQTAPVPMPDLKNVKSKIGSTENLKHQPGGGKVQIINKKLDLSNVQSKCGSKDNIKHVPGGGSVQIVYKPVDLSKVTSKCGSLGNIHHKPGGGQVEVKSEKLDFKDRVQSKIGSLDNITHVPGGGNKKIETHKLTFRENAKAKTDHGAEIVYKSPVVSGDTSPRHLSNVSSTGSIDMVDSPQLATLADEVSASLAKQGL
SMILES,Potency,"activity, negative = inhibition"
CC(C)(C)NC(=O)N1CCC(C(=O)O)CC1,inactive,–
CCCS(=O)(=O)c1c(S(=O)(=O)CCC)c2c(N)cccn2c1C(=O)c1ccc(F)cc1,"inconclusive: 22.4 µM [inhibitor, partial curve]",–
CCOC(=O)CCc1c(C)c(C#N)c2[nH]c3ccccc3n2c1=O,"inconclusive: 28.2 µM [inhibitor, single point]",–
C/C(=N\NC(=O)c1c[nH]c2ccccc12)c1ccco1,"inconclusive: 3.16 µM [inhibitor, full curve, poor fit]",–
CS(=O)(=O)N(CCC#N)Cc1ccc(/C=C2\C(=O)Nc3ccccc32)o1,"inconclusive: 25.1 µM [inhibitor, partial curve]",–
CC(C)(C)c1ccc(C(=O)N(Cc2ccc(F)cc2)Cc2ccco2)cc1,"inconclusive: 15.8 µM [inhibitor, single point]",–
CCOc1ccc(C2=NNC(c3cccs3)=Nc3ccc(OC)cc32)cc1OCC,"inconclusive: 17.8 µM [inhibitor, partial curve, poor fit]",–
COc1cc(Cl)c(C)cc1NC(=O)c1cnn(-c2ccc(F)cc2F)c1C1CCN(C(=O)OC(C)(C)C)CC1,inactive,–
CC(=O)c1c(N)[nH]c(-c2ccccc2)nc1=S,"inconclusive: 39.8 µM [inhibitor, single point]",–
CC(C)CCNC(=O)c1ccc2c(SCC(=O)O)c3c(nc2c1)CCCC3,"inconclusive: 20 µM [inhibitor, partial curve, poor fit]",–
Cn1c(=O)c2c(nc(N/N=C/c3cccs3)n2Cc2ccc(Br)cc2)n(C)c1=O,"inconclusive: 17.8 µM [inhibitor, partial curve]",–
CCn1c(-c2cc3ccccc3cc2O)n[nH]c1=S,"inconclusive: 22.4 µM [inhibitor, partial curve]",–
CSc1nsc(/C=C/Nc2cccc(Cl)c2)c1C#N,"inconclusive: 15.8 µM [inhibitor, partial curve]",–
COc1cccc2cc(-c3nnc(SCC(=O)Nc4nc(C)cs4)n3C)oc12,"inconclusive: 1 µM [inhibitor, full curve]",–
O=C(CSc1nnc(-c2cccc(F)c2)c(-c2cccc(F)c2)n1)NC1CCCCC1,inactive,–
COc1ccc(-c2[nH]c(-c3ccc(SC)cc3)nc2SCC(=O)Nc2nccs2)cc1,"inconclusive: 6.31 µM [inhibitor, partial curve]",–
Cc1nc(SCc2cccc(F)c2)c2oc3ccccc3c2n1,"inconclusive: 11.2 µM [inhibitor, partial curve]",–
O=[N+]([O-])c1ccc(O)c(C=Nc2cccc3ncccc23)c1,"inconclusive: 17.8 µM [inhibitor, partial curve, poor fit]",–
CC(/C=C/c1ccc(N(C)C)cc1)=N\N=C1\NC(=O)CC(C(=O)Nc2ccccc2)S1 (configuration not stated),"inconclusive: 6.31 µM [inhibitor, partial curve]",–
CCOc1cccc(-c2cc(C(=O)N3N=C(C)CC3(O)C(F)F)c3ccccc3n2)c1 (configuration not stated),inactive,–
Cc1cccc(C)c1OCCCCc1c(C)n[nH]c1C,"inconclusive: 11.2 µM [inhibitor, partial curve]",–

SMILES,Potency,"activity, negative = inhibition"
Clc1ccc(/C=N/c2c(-c3ccco3)nc3ccccn23)cc1,active: 25.1 µM,–
CCNC(=O)[C@H](C)/C=C/C(NC(=O)OCc1ccccc1)c1ccc(C(=O)OC)cc1 (some centres not stated),"inconclusive: 25.1 µM [inhibitor, single point]",–
COC(=O)/C(=C(/F)SCC(C)=O)C(F)(F)F,"inconclusive: 28.2 µM [inhibitor, partial curve]",–
COc1ccccc1Nc1nc(N)nc(CN2CCC(C)CC2)n1,inactive,–
CCOC(=O)c1cc(CC)sc1/N=C/C1C(=O)CCCC1=O,"inconclusive: 12.6 µM [inhibitor, single point]",–
O=C1N=C(N2CCN(c3cccc4ccccc34)CC2)S/C1=C/c1cccs1,inactive,–
Cc1ccc(C)c(S(=O)(=O)Nc2cc(SCC(=O)O)c(O)c3ccccc23)c1,active: 3.55 µM,–
Cc1occc1C(=O)N/N=C/c1c[nH]c2ccccc12,"inconclusive: 31.6 µM [inhibitor, single point]",–
CCN(CC)S(=O)(=O)c1nnc(NC(=O)c2ccc(Br)cc2)s1,"inconclusive: 2.82 µM [inhibitor, partial curve]",–
COc1ccccc1NC(NC(=O)c1ccco1)C(=O)c1ccccc1 (configuration not stated),"inconclusive: 25.1 µM [inhibitor, partial curve]",–
COc1ccc(/C=N/NC(=O)CCn2c3ccccc3c3ccccc32)cc1O,"inconclusive: 3.98 µM [inhibitor, full curve]",–
O=C(c1ccc(COc2ccc(Cl)cc2)cc1)N1CCCCC1,"inconclusive: 8.91 µM [inhibitor, partial curve]",–
CCN(CCCNC(=O)c1ccc(Sc2ccc(Cl)cc2)c(NC(C)=O)c1)c1ccccc1,"inconclusive: 35.5 µM [inhibitor, single point]",–
CC1CCCN(C(=O)Nc2cccc(NC(=O)N3CCCC(C)C3C)c2)C1C (configuration not stated),"inconclusive: 14.1 µM [inhibitor, single point]",–
Cc1cccc(-n2cc[nH]c2=S)c1,inactive,–
COc1ccc(-c2nc(CSc3nnc(C)n4c3cc3oc(C)cc34)c(C)o2)cc1OC,"inconclusive: 31.6 µM [inhibitor, single point]",–
Cc1ccc2nc3c(cc(C(=O)NCc4ccco4)c(=N)n3Cc3ccco3)c(=O)n2c1,"inconclusive: 7.94 µM [inhibitor, partial curve]",–
CCc1ccc(NC(=O)C(=O)NCc2ccccn2)cc1,inactive,–
COc1ccccc1-c1cc(C(=O)N2CCc3ccccc3C2)c2ccccc2n1,"inconclusive: 31.6 µM [inhibitor, partial curve, poor fit]",–
COC(=O)NC(c1cccc(C)c1)[C@@]1(C(=O)OC)CCCC1=O (some centres not stated),–,inactive: -8.34% [at 11.5 µM]
O=C(O)Cc1ccc2[nH]c3ccc(CC(=O)O)cc3c2c1,"inconclusive: 8.91 µM [inhibitor, full curve, poor fit]",–
